Reference: the supplement of paper PMC3334620
Over roughly 33,000 sequences, “E-score (-0.5 to 0.5)” has its median near -0.036; the highest 2% begin near 0.37. Some of the results follow.

molecular target: T1, Yer064c (UniProt P40041); experiment: PBM E-score (8-mer binding enrichment) (E-score (-0.5 to 0.5)); higher = stronger / more preferred TF binding; most listed sequences are background and not binding sites; conditions: protein concentration: 200 nM; construct: GST-full length
T1 sequence: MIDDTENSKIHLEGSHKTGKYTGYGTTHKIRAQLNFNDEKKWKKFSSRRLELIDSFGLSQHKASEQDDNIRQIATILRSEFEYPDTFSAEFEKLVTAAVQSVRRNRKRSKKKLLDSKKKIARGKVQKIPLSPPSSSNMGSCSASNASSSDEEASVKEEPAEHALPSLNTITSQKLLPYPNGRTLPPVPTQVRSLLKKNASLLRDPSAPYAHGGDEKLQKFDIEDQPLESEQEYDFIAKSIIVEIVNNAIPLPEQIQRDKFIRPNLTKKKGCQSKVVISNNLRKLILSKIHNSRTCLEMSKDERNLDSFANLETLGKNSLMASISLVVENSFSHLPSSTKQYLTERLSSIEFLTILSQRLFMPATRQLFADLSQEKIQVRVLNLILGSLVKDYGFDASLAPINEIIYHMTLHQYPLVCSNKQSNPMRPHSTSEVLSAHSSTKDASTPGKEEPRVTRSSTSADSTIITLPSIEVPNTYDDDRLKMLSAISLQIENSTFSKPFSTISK
Outline: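 Yeast transcription factors carrying a GST tag, as full-length proteins or DNA-binding domains, were produced by PURExpress in vitro transcription/translation. About 100-200 nM protein was applied to universal all-10-mer Agilent arrays, double-stranded by primer extension on fresh or once-stripped slides. Bound protein was detected with fluorescent anti-GST, and scans were normalised with masliner. The Universal PBM Analysis Suite gave each ungapped eight-base word, pooled with its reverse complement, an E-score, a modified Wilcoxon-Mann-Whitney statistic.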

| Sequence | PBM E-score |
| --- | --- |
| CGTGCTAC | -0.257 |
| ACCTGGTC | -0.12 |
| CTGGTAGA | -0.0157 |
| ACAATTTC | 0.057 |
| CGGGGTAA | 0.0384 |
| CCATCCAA | 0.00739 |
| CATTCGGA | 0.15 |
| ATCTGCCG | -0.0445 |
| CTCTGTAA | -0.0221 |
| GCTTCCGA | -0.133 |
| ATATGGTG | -0.0771 |
| GACCAGTA | -0.0666 |
| CCAACTTC | -0.117 |
| GTGAATTA | 0.0879 |
| ACCCCCAG | -0.0546 |
| AGCTTCCA | -0.148 |
| CTTAGAGC | -0.0805 |
| ACAGAGGT | -0.21 |
| AGCGATAA | -0.173 |
| CGTTGAAC | -0.169 |
| GGGTGGTA | -0.222 |
| CGTAACAC | 0.139 |

| Sequence | PBM E-score |
| --- | --- |
| ACAGGCCT | -0.209 |
| CAACCTAC | -0.195 |
| AAGTAGGG | -0.0622 |
| AGGGCCGG | -0.282 |
| AACTGGGC | -0.315 |
| AACTTTTC | 0.0287 |
| GGGACGCA | -0.165 |
| AACATCCC | -0.252 |
| ACGAGAAT | -0.125 |
| CAGTATTA | -0.0524 |
| CTATCCCC | -0.29 |
| CGCACTAG | -0.19 |
| AATTGACC | -0.0998 |
| AGGTTCCC | -0.214 |
| CAGGACGA | -0.0439 |
| CGCTCTAG | -0.196 |
| AAACTGCA | -0.0958 |
| AGAGCTAT | -0.225 |
| ACCGGAAG | -0.0509 |
| GTCTACAC | 0.0747 |
| CCTACTGC | -0.163 |
| CATCCCTA | 0.0427 |

| Sequence | PBM E-score |
| --- | --- |
| AACTAACA | 0.0696 |
| GTCAGTAA | 0.0875 |
| AATATCCG | -0.0742 |
| AACCACTC | 0.104 |
| AGTAACCA | 0.0807 |
| AAGCATCT | -0.268 |
| CGAGCGAC | -0.00147 |
| CCCTATCA | -0.155 |
| ACCTATGA | 0.165 |
| ACAATTGT | -0.0352 |
| CCCCTCAA | -0.184 |
| GGGCTTAC | -0.23 |
| AAGGTGTG | -0.121 |
| CTACGTCC | -0.239 |
| GTACCCCA | -0.0275 |
| ACAGGGCT | -0.265 |
| ACATTACC | 0.0246 |
| ATTTAAGA | 0.16 |
| ACGTAGCC | -0.186 |
| ATTAGCCA | 0.241 |
| GTCTATCA | 0.0174 |
| CCGGGGAC | -0.126 |

| Sequence | PBM E-score |
| --- | --- |
| ACATGATA | 0.0112 |
| ACAGGAAA | -0.0551 |
| ACCTCGAA | 0.00861 |
| GCTGTTCA | 0.0639 |
| GAATACAC | 0.0359 |
| ACAGAATA | 0.0768 |
| TAGGACAA | -0.00562 |
| GCAAGTGA | 0.167 |
| AGGTTACA | 0.109 |
| CCCGTGGC | -0.101 |
| AATCCAAA | 0.113 |
| GCCACCTA | -0.116 |
| GTGCAGCA | -0.233 |
| CATGGGCA | -0.0215 |
| AATTCACG | -0.195 |
| CCAAGTGC | -0.302 |
| GACCCGGA | -0.00849 |
| CATACCCG | 0.0361 |
| GACATGGC | -0.0552 |
| ACACGCCC | -0.151 |
